In all, about 200,000 compounds went through this assay and about 4,500 (2.2%) were called active. Inconclusive means that the source gave no clear call. Such entries were picked first, then a sample of the others. Calls come from the whole dose curve; as a rule, active = well fitted inhibition curve with a large enough effect; inconclusive = small, poorly fitted or top-dose-only effect, or effect the other way; inactive = flat fitted curve, though single readings scatter. Potencies beside an inconclusive call are fits to weak or partial responses and may not hold up.
molecular target: Cruzipain (Trypanosoma cruzi) (UniProt P25779); assay: qHTS Assay for Promiscuous and Specific Inhibitors of Cruzain (without detergent); settings: purified cruzain, Z-FR-AMC fluorescence, no detergent; note: nearly all actives have a fitted effect of over 40% in size;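 for max response, negative = inhibition: plate controls were enzyme without inhibitor for no effect and buffer without enzyme for full effect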
Sequence of UniProt P25779 (P25779 whole entry, looked up): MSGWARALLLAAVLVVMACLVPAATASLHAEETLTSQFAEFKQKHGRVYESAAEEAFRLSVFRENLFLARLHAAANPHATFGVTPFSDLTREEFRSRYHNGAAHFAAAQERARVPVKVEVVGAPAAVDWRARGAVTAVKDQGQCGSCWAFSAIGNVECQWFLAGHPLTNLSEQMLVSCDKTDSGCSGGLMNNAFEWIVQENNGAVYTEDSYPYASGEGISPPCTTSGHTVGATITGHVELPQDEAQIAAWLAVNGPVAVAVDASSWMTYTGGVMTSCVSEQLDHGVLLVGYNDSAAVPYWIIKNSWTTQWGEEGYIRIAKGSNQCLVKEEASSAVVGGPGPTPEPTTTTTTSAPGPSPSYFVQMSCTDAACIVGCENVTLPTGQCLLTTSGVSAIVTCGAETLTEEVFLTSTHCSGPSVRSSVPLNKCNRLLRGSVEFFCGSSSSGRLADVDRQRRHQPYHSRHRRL
In short: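 Detergent-free condition (0.00005% Triton X-100) in acetate buffer pH 5.5 with DTT. 1.5 nM enzyme and compound were pre-mixed 15 min, then 2 uM Z-FR-AMC substrate added; reaction progress from fluorescence change between first and third reads (60 s).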
Potency is the fitted concentration of half-maximal effect; tags give direction and shape of the fitted curve.

Row | SMILES | max response, negative = inhibition | Potency
1 | COC(=O)c1cccc(CN2C(=O)SC(Nc3ccc(Br)cc3)C2=O)c1 (stereo unspecified) | inactive: 0.303% | 
2 | Cc1c(-c2ccc(Cl)cc2)c(=O)oc2c(CN3CCOCC3)c(O)ccc12 | inactive: -17% | 
3 | O=C(NCCc1ccccc1)c1cc2sccc2n1Cc1ccc(F)cc1 | inactive: -7% | 
4 | Cc1ccc(-c2nn(-c3ccccc3)cc2/C=C(\C#N)C(=O)NCc2ccccc2)cc1 |  | inconclusive: 39.8 µM [inhibitor, single point]
5 | O=C(CCN1CCOCC1)c1ccc2c(c1)OCCO2 | inactive: -13.9% | 
6 | CC(C)Cn1c2nc3ccccc3nc2c2c(=O)n(CCN3CCOCC3)cnc21 |  | inconclusive: 39.8 µM [activator, single point]
7 | COc1ccccc1/C=C/c1nc(C#N)c(N2CCN(c3ccccc3)CC2)o1 | inactive: 13.1% | 
8 | COc1cccc(-c2cc(C(F)(F)F)nc(-n3cc(Cl)cn3)n2)c1 |  | inconclusive: 31.6 µM [activator, single point]
9 | Cc1ccc(NC(=O)c2ccc(COc3ccc4c(c3)CCC4)cc2)c(C)c1 |  | inconclusive: 39.8 µM [inhibitor, single point]
10 | CCn1cc(C(=O)NCc2ccc(C)o2)c2cc(OC)c(OC)cc2c1=O |  | inconclusive: 39.8 µM [activator, single point]
11 | CCOC(=O)CCCNc1ccc([N+](=O)[O-])cc1[N+](=O)[O-] |  | inconclusive: 25.1 µM [inhibitor, single point]
12 | COCCCNC(=O)c1c(N)n(-c2ccc(S(N)(=O)=O)cc2)c2nc3ccccc3nc12 |  | inconclusive: 25.1 µM [activator, partial curve]
13 | O=C(COc1cccc2ccccc12)NNC(=O)Nc1ccccc1 |  | inconclusive: 31.6 µM [inhibitor, single point]
14 | CCCCn1nc(NC(=O)c2cccc(Cl)c2)c2cc3ccc(C)cc3nc21 | inactive: -17.4% | 
15 | CC(C)(C)c1ccc(OCC(=O)NC(Cc2c[nH]c3ccccc23)C(=O)O)cc1 (stereo unspecified) | inactive: 29.3% | 
16 | COc1cccc(CNC(=O)CCCn2c(=O)c3cccn3c3cccnc32)c1OC |  | inconclusive: 39.8 µM [activator, single point]
17 | O=C(COc1ccccc1)N(Cc1ccccc1)c1nc(-c2ccccc2)cs1 |  | inconclusive: 31.6 µM [inhibitor, single point]
18 | CS(=O)(=O)Nc1cccc(-c2cncnc2NCc2cccnc2)c1 | inactive: 3.03% | 
19 | Cc1cnc2c(c1SCC(=O)NCc1ccc(F)cc1)c(=O)n(C)c(=O)n2C | inactive: -3.5% | 
20 | COc1ccc(OC)c(NC(=O)CC2C(=O)NCCN2C(=O)Nc2cccc(Cl)c2)c1 (stereo unspecified) |  | inconclusive: 39.8 µM [activator, single point]
21 | CN(C)c1ccc(/C=N/N=C/c2ccccc2O)cc1 |  | inconclusive: 39.8 µM [inhibitor, single point]

Row | SMILES | max response, negative = inhibition | Potency
22 | O=C(N/N=C/c1cccc(OCc2ccccc2)c1)c1ccc(Br)cc1 |  | inconclusive: 39.8 µM [inhibitor, single point]
23 | CCC(=O)N1CCc2cc(S(=O)(=O)NCCC(=O)Nc3ccc(OC)c(OC)c3)ccc21 | inactive: 0.516% | 
24 | COc1ccc(/C=C/C(=O)Oc2ccc(/C=N\NC(=O)c3ccc(F)cc3)cc2)cc1 |  | active: 7.94 µM
25 | COc1ccc(CCN(C(=O)COc2ccccc2)c2nc(-c3ccccc3)cs2)cc1OC |  | inconclusive: 39.8 µM [inhibitor, single point]
26 | Cc1ccccc1CSc1cn(CC(=O)N2CCCC2)c2ccccc12 |  | inconclusive: 39.8 µM [activator, single point]
27 | COc1ccc(NS(=O)(=O)c2cc(NC(=O)/C=C/c3cccs3)ccc2N2CCOCC2)cc1 |  | inconclusive: 39.8 µM [inhibitor, single point]
28 | Cc1ccc(S(=O)(=O)N2CCOCC2)cc1NC(=O)COC(=O)CNC(=O)c1ccc(C(C)(C)C)cc1 |  | inconclusive: 31.6 µM [activator, partial curve]
29 | O=C(CN1C(=O)C2C3c4ccccc4C(c4ccccc43)C2C1=O)Nc1ccccc1C(=O)O (stereo unspecified) |  | inconclusive: 25.1 µM [activator, single point]
30 | COc1ccc(NC(=O)c2sc3nc(C)c(C(=O)Nc4ccc(C)cc4C)c(-c4cccs4)c3c2N)cc1 |  | inconclusive: 6.31 µM [activator, single point]
31 | Cc1cc(NC(=O)c2cc3ccccc3o2)cc(C)c1OCC(=O)N1CCOCC1 |  | inconclusive: 39.8 µM [activator, single point]
32 | Clc1ccc(-c2nc3ccccn3c2Nc2ccc3c(c2)OCCO3)s1 |  | inconclusive: 25.1 µM [inhibitor, single point]
33 | Cc1cccc(-c2nc(CS(=O)CC(=O)NCCCSC3CCCCC3)c(C)o2)c1 (stereo unspecified) |  | inconclusive: 25.1 µM [activator, partial curve]
34 | Cc1cccc(OCc2nnc(SCC(=O)Nc3cc(C)on3)n2C)c1 |  | inconclusive: 31.6 µM [inhibitor, single point]
35 | CCN(CC)c1ccc(S(=O)(=O)Nc2cc(Cl)ccc2Cl)cc1NC(=S)NC(=O)C1CCCC1 |  | active: 31.6 µM
36 | Cc1cccc(Cn2c(=O)n(-c3ccc(Cl)c(Cl)c3)c(=O)c3c(C)c(C)sc32)c1 | inactive: -12.4% | 
37 | COc1ccc(-c2noc(CCC(=O)N3CCN(c4cccc(C(F)(F)F)c4)CC3)n2)cc1 |  | inconclusive: 31.6 µM [activator, partial curve]
38 | O=C(COc1ccccc1F)Nc1ccc(Cl)c(-c2nc3ccccc3[nH]2)c1 |  | inconclusive: 3.16 µM [inhibitor, single point]
39 | Cc1cc(C)c(/C=C/c2onc(C)c2S(=O)(=O)N2CCC(C(=O)Nc3ccc(Cl)c(C(F)(F)F)c3)CC2)c(C)c1 | inactive: 5.32% | 
40 | CCOc1ccccc1NC(=O)C(OC(=O)c1ccc(N(C)C)cc1)c1ccccc1 (stereo unspecified) |  | inconclusive: 39.8 µM [inhibitor, single point]
41 | Cc1ccc(CNC(=O)CN2CCCN(Cc3ccc(F)cc3)S2(=O)=O)cc1 |  | inconclusive: 31.6 µM [activator, single point]

Source: PubChem BioAssay AID1476 (National Center for Advancing Translational Sciences (NCATS), 2009)
